In a collection of fitness landscapes (doi:10.1126/science.1257360):
Some of the results follow.

B1: PhoQ; a variant is named by its letters at X, in order, P23837 (parent)
chain: MKKLLRLFFPLSLRVRFLLATAAVVLVLSLAYGMVALIGYSVSFDKTTFRLLRGESNLFYTLAKWENNKLHVELPENIDKQSPTMTLIYDENGQLLWAQRDVPWLMKMIQPDWLKSNGFHEIEADVNDTSLLLSGDHSIQQQLQEVREDDDDAEMTHSVAVNVYPATSRMPKLTIVVVDTIPVELKSSYMVWSWFIYVLSANLLLVIPLLWVAAWWSLRPIEALAKEVRELEEHNRELLNPATTRELTSLVRNLNRLLKSERERYDKYRTTLTDLTHSLKTPLXXLQXXLRSLRSEKMSVSDAEPVMLEQISRISQQIGYYLHRASMRGGTLLSRELHPVAPLLDNLTSALNKVYQRKGVNISLDISPEISFVGEQNDFVEVMGNVLDNACKYCLEFVEISARQTDEHLYIVVEDDGPGIPLSKREVIFDRGQRVDTLRPGQGVGLAVAREITEQYEGKIVAGESMLGGARMEVIFGRQHSAPKDE

Variants of: B1
Test: enrichment ratio after two sorts for PhoP signalling (ratio (wild type AVST 3.29)); higher = more functional
Conditions: with PhoP (E. coli)

HNYR and TSIN cannot be ordered by enrichment ratio: ≤ 0.25 for the first, ≤ 0.25 for the second.

RYRE and SHHW cannot be ordered by enrichment ratio: ≤ 0.25 for the first, ≤ 0.25 for the second.

PWGW and WCWY cannot be ordered by enrichment ratio: ≤ 0.25 for the first, ≤ 0.25 for the second.

DPWN and YWPW cannot be ordered by enrichment ratio: ≤ 0.25 for the first, ≤ 0.25 for the second.

MRAK and GVLE cannot be ordered by enrichment ratio: ≤ 0.25 for the first, ≤ 0.25 for the second.

Compared with TVSQ, WRCS is lower in enrichment ratio: 7.48 for the first, ≤ 0.25 for the second.

KVIQ and MKSA cannot be ordered by enrichment ratio: ≤ 0.25 for the first, ≤ 0.25 for the second.

ICMR and PHAD cannot be ordered by enrichment ratio: ≤ 0.25 for the first, ≤ 0.25 for the second.

First: NFRY
Second: SLTS
The enrichment ratio of the first is lower: ≤ 0.25 for the first, 6.43 for the second.

DLMS and IMTE cannot be ordered by enrichment ratio: ≤ 0.25 for the first, ≤ 0.25 for the second.

Going from GACL to HHVS, the enrichment ratio falls from 4.87 to ≤ 0.25.

PKLA and FEGS cannot be ordered by enrichment ratio: ≤ 0.25 for the first, ≤ 0.25 for the second.

IADR and KLDP cannot be ordered by enrichment ratio: ≤ 0.25 for the first, ≤ 0.25 for the second.

RSPI and DQMH cannot be ordered by enrichment ratio: ≤ 0.25 for the first, ≤ 0.25 for the second.

QIPD and FKDP cannot be ordered by enrichment ratio: ≤ 0.25 for the first, ≤ 0.25 for the second.

RNCN and REFR cannot be ordered by enrichment ratio: ≤ 0.25 for the first, ≤ 0.25 for the second.

Going from NPRN to YSLI, the enrichment ratio rises from ≤ 0.25 to 8.59.

MRHN and FTQR cannot be ordered by enrichment ratio: ≤ 0.25 for the first, ≤ 0.25 for the second.

PENM and TIDC cannot be ordered by enrichment ratio: ≤ 0.25 for the first, ≤ 0.25 for the second.

KIVK and LASA cannot be ordered by enrichment ratio: ≤ 0.25 for the first, ≤ 0.25 for the second.

NAWQ and VKCD cannot be ordered by enrichment ratio: ≤ 0.25 for the first, ≤ 0.25 for the second.

TNDE and WAAP cannot be ordered by enrichment ratio: ≤ 0.25 for the first, ≤ 0.25 for the second.

WHFD and KAMR cannot be ordered by enrichment ratio: ≤ 0.25 for the first, ≤ 0.25 for the second.

GTDN and WDEY cannot be ordered by enrichment ratio: ≤ 0.25 for the first, ≤ 0.25 for the second.

VKHM and QIHF cannot be ordered by enrichment ratio: ≤ 0.25 for the first, ≤ 0.25 for the second.

IHRP and AWCT cannot be ordered by enrichment ratio: ≤ 0.25 for the first, ≤ 0.25 for the second.

YHLS and KMYN cannot be ordered by enrichment ratio: ≤ 0.25 for the first, ≤ 0.25 for the second.

MMVN and YANP cannot be ordered by enrichment ratio: ≤ 0.25 for the first, ≤ 0.25 for the second.

GGDG and FDPH cannot be ordered by enrichment ratio: ≤ 0.25 for the first, ≤ 0.25 for the second.

RTVH and VPYT cannot be ordered by enrichment ratio: ≤ 0.25 for the first, ≤ 0.25 for the second.

DDGF and DNQP cannot be ordered by enrichment ratio: ≤ 0.25 for the first, ≤ 0.25 for the second.

GEDL and RGSF cannot be ordered by enrichment ratio: ≤ 0.25 for the first, ≤ 0.25 for the second.

Going from ATCI to EMCI, the enrichment ratio falls from 12.5 to ≤ 0.25.

KSCY and HQIE cannot be ordered by enrichment ratio: ≤ 0.25 for the first, ≤ 0.25 for the second.

HDVK and QGWP cannot be ordered by enrichment ratio: ≤ 0.25 for the first, ≤ 0.25 for the second.

SNKC and GIFH cannot be ordered by enrichment ratio: ≤ 0.25 for the first, ≤ 0.25 for the second.

EEPN and HDVP cannot be ordered by enrichment ratio: ≤ 0.25 for the first, ≤ 0.25 for the second.

WIFM and THRC cannot be ordered by enrichment ratio: ≤ 0.25 for the first, ≤ 0.25 for the second.

First: TCVN
Second: FLQL
The enrichment ratio of the first is higher: 2.66 for the first, ≤ 0.25 for the second.

Compared with GICF, GNIG is lower in enrichment ratio: 9.03 for the first, 1.98 for the second.

WFMG and VMEP cannot be ordered by enrichment ratio: ≤ 0.25 for the first, ≤ 0.25 for the second.

YVWG and ECSK cannot be ordered by enrichment ratio: ≤ 0.25 for the first, ≤ 0.25 for the second.
